# Data from the supplement of paper PMC12217912.
# Some of the results follow. The full chains were built here from the parent and the listed change. Values near 0.05 are background.
# B1: TEV protease; numbered along this chain (parent)
# chain: MGESLFKGPRDYNPISSSICHLTNESDGHTTSLYGIGFGPFIITNKHLFRRNNGTLVVQSLHGVFKVKDTTTLQQHLVDGRDMIIIRMPKDFPPFPQKLKFREPQREERICLVTTNFQTKSMSSMVSDTSCTFPSGDGIFWKHWIQTKDGQCGSPLVSTRDGFIVGIHSASNFTNTNNYFTSVPKNFMELLTNQEAQQWVSGWRLNADSVLWGGHKVFMVKPEEPFQPVKEATQL
# Variants of: B1
# Assay: raw area under fraction-flipped curve 0-4 h after induction (AUC4h, not background-subtracted), DNA-recorder readout of cleavage of the substrate (dimensionless); higher = more cleavage of the substrate by the protease variant
# Conditions: temperature: 34 °C; time window: 0-4 h after rhamnose induction
# Method: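 In vivo DNA recorder in E. coli TOP10(DE3) ΔrhaA at 34 °C. Each TEVp single-site mutant (parent TEVp 0) is paired with a single-site variant of the 7-mer TEVs (canonical ENLYFQ|S). The substrate sits between flexible linkers in a Bxb1-sfGFP-TEVs-SsrA fusion, so cleavage stabilises Bxb1 and speeds flipping of a recombination array, read by NGS. The value is the raw area under the fraction-flipped curve over 0-4 h after rhamnose induction (AUC4h), with ≥20 reads per time point. It is not background-subtracted; inactive controls average about 0.047.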
# 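Note: Bxb1 expression induced with 0.2% (w/v) L-rhamnose at OD600 near 0.5, cultures sampled hourly, flipped fraction per protease–substrate barcode pair counted by paired-end Illumina sequencing.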
Variant,area with substrate ENLAFQS,area with substrate ENLDFQS,area with substrate ENLEFQS,area with substrate ENLFFQS,area with substrate ENLGFQS,area with substrate ENLHFQS,area with substrate ENLLFQS,area with substrate ENLMFQS,area with substrate ENLNFQS,area with substrate ENLPFQS,area with substrate ENLQFQS,area with substrate ENLRFQS,area with substrate ENLTFQS,area with substrate ENLWFQS,area with substrate ENLCFQS,area with substrate ENLKFQS,area with substrate ENLSFQS,area with substrate ENLVFQS,area with substrate ENLIFQS
MGESLFKGPRDYNPISSSICHLTNEEDGHTTSLYGIGFGPFIITNKHLFRRNNGTLVVQSLHGVFKVKDTTTLQQHLVDGRDMIIIRMPKDFPPFPQKLKFREPQREERICLVTTNFQTKSMSSMVSDTSCTFPSGDGIFWKHWIQTKDGQCGSPLVSTRDGFIVGIHSASNFTNTNNYFTSVPKNFMELLTNQEAQQWVSGWRLNADSVLWGGHKVFMVKPEEPFQPVKEATQL [S26E],0.0761,0.0776,0.0676,0.074,0.061,0.0603,0.059,0.0502,0.0676,0.0414,0.0526,0.0681,0.0789,0.0466,–,–,–,–,–
MGESLFKGPRDYNPISSSICHLTNESDGHTTSLYGIGFGPFIITNKHLFRRNNGTLVVQSLHGVFKVKDTTTLQQHLVDGRDMIIIRMPKDFPPFPQKLKFREPIREERICLVTTNFQTKSMSSMVSDTSCTFPSGDGIFWKHWIQTKDGQCGSPLVSTRDGFIVGIHSASNFTNTNNYFTSVPKNFMELLTNQEAQQWVSGWRLNADSVLWGGHKVFMVKPEEPFQPVKEATQL [Q105I],0.0673,0.0634,0.0571,0.0581,–,–,0.0688,–,0.0804,–,–,–,–,–,0.107,0.053,0.0653,0.0844,–
MGESLFKGPRDYNPISSSICHLTNESDGHTTSLYGIGFGPFIITNKHLFRRNNGTLVVQSLHGVFKVKDTTTLQQHLVDGRDMIIIRMPKDFPPFPQKLKFREPQREERICLVTTNFQTKSMSSMVSDTSCTFWSGDGIFWKHWIQTKDGQCGSPLVSTRDGFIVGIHSASNFTNTNNYFTSVPKNFMELLTNQEAQQWVSGWRLNADSVLWGGHKVFMVKPEEPFQPVKEATQL [P134W],0.0567,0.0605,0.0504,0.0419,–,–,0.0365,–,0.0561,0.0345,–,–,–,–,0.0646,0.0702,–,–,–
MGESLFKGPRDYNPISSSICHLTNESDGHTTSLYGIGFGPFIITNKHLFRRNNGTLVVQSLHGVFKVKDTTTLQQHLVDGRDMIIIRMPKDFPPFPQKLKFREPQREERICLVTTNFQTKSMSSMVSDTSCTFPSGDGIFWKHWIQTKDGQCGSPLVSTRDGFIVGIHSASNFTNTNNYFTSVPKNFMELLTNQEAQQWVSGWRLNADSVLWGGHKVFMVKPEEPFQPVKEATVL [Q234V],0.0676,0.0664,0.0766,0.0722,0.0576,–,0.0661,0.0711,0.0707,–,0.0813,0.0741,–,–,–,0.0658,0.0635,–,–
MGESLFKGPRDYNPISSSICHLTNESDGHTTSLYGIGFGPFIITNKHLFRRNNGTLVVQSLHGVFKVKDTTTLQQHLVDGRDMIIIRMPKDFPPFPQKLKFREPQREERICLVTTNFQTKSMSSMVSDTSCTFPSGDGIFWKHWIQTKDGQCGSPLVSIRDGFIVGIHSASNFTNTNNYFTSVPKNFMELLTNQEAQQWVSGWRLNADSVLWGGHKVFMVKPEEPFQPVKEATQL [T159I],0.0634,0.0573,0.0711,–,–,–,0.0809,0.0598,0.0645,0.0635,–,–,0.0658,0.0747,–,0.0589,–,–,0.106
MGESLFKGPRDYNPISSSICHLTNESDGHTTSLYGIGFGPFIITNKHLFRRNNGTLNVQSLHGVFKVKDTTTLQQHLVDGRDMIIIRMPKDFPPFPQKLKFREPQREERICLVTTNFQTKSMSSMVSDTSCTFPSGDGIFWKHWIQTKDGQCGSPLVSTRDGFIVGIHSASNFTNTNNYFTSVPKNFMELLTNQEAQQWVSGWRLNADSVLWGGHKVFMVKPEEPFQPVKEATQL [V57N],0.0709,0.0648,0.0667,0.0867,–,0.0631,0.0792,–,0.0708,0.0613,–,0.0667,0.0814,–,0.0668,–,0.033,–,0.0951
MGESLFKGPRDYNPISSSICHLTNESDGHTTSLYGIGFGPFIITNKHLFRRNNGTLVVQSLHGVFKVKDTTTLQQHLVDGRDMIIIRMPKDFPPFPQKLKFREPQREERICLVTTNFQTKSMSSMVSDTSCTFPSGDGIFWKHWIQTKDGQCGSPLVSTRDGFIVGIHSASNFTNTNNYFTSVPKNFMELLTNQEAQQFVSGWRLNADSVLWGGHKVFMVKPEEPFQPVKEATQL [W199F],0.118,0.0535,0.0637,0.0667,0.0714,0.0752,0.0509,–,–,–,–,0.068,–,–,–,0.0648,–,–,0.0723
MGESLFKGPRDYNPISSSICHLTNESDGHTTSLYGIGFGPFIITNKHLFRRNNGTLVVQSLHGVFKVKDTTTLQQHLVDGRDMITIRMPKDFPPFPQKLKFREPQREERICLVTTNFQTKSMSSMVSDTSCTFPSGDGIFWKHWIQTKDGQCGSPLVSTRDGFIVGIHSASNFTNTNNYFTSVPKNFMELLTNQEAQQWVSGWRLNADSVLWGGHKVFMVKPEEPFQPVKEATQL [I85T],0.0572,0.038,–,0.0708,0.0543,–,0.0492,–,0.0334,0.0423,0.0675,–,–,0.0368,0.0692,–,0.0485,0.0436,–
MGESLFKGPRDYNPISSSWCHLTNESDGHTTSLYGIGFGPFIITNKHLFRRNNGTLVVQSLHGVFKVKDTTTLQQHLVDGRDMIIIRMPKDFPPFPQKLKFREPQREERICLVTTNFQTKSMSSMVSDTSCTFPSGDGIFWKHWIQTKDGQCGSPLVSTRDGFIVGIHSASNFTNTNNYFTSVPKNFMELLTNQEAQQWVSGWRLNADSVLWGGHKVFMVKPEEPFQPVKEATQL [I19W],0.0576,0.0412,0.056,0.051,–,0.0527,–,–,0.0625,–,0.0574,0.0525,–,0.0475,–,0.0488,0.0484,0.0479,0.0516
MGESLFKGPRDYNPISSSICHLTNESDGHTTSLYGIGFGPFIITNKHLFRRNNGTLVVQSLHGVNKVKDTTTLQQHLVDGRDMIIIRMPKDFPPFPQKLKFREPQREERICLVTTNFQTKSMSSMVSDTSCTFPSGDGIFWKHWIQTKDGQCGSPLVSTRDGFIVGIHSASNFTNTNNYFTSVPKNFMELLTNQEAQQWVSGWRLNADSVLWGGHKVFMVKPEEPFQPVKEATQL [F65N],0.0433,0.0486,–,0.0763,–,0.0472,0.0793,–,0.0688,0.0503,0.0565,0.0734,–,0.055,0.064,0.0762,–,–,0.0769
MGESLFKGPRDYNPISSSICHLTNESDGHTTSLYGIGFGPFIITNKHLFRRNNGTLVVQSLHGVFKVKDTTTLQQHLVDGRDMIIIRMPKDFPPFPQKLKFREPQREERICLVTTNFQTKSMSSMVSDTSCTFPSCDGIFWKHWIQTKDGQCGSPLVSTRDGFIVGIHSASNFTNTNNYFTSVPKNFMELLTNQEAQQWVSGWRLNADSVLWGGHKVFMVKPEEPFQPVKEATQL [G136C],0.0537,0.0633,0.0781,0.102,0.0633,0.0752,0.0726,0.0599,0.0712,0.0645,0.0745,0.0766,0.0622,0.0655,0.0874,–,0.0675,0.0815,0.0844
MGESLFKGPRDYNPISSSICHLTNESDGHTTSLYGIGFGPFIITNKHLFRRNNGTLVVQSLHGVFKVKDTTTLQQHLVDGRDMIIIRMPKDFPPFPQKLKFREPQREERICLVTTNFQTKSMSSMVSDTSCTFPSGDGIFWKHWIQTKDGQCGSPLVSTRDGFIVGIHSASNFTNTNNYFTSVPKNFMGLLTNQEAQQWVSGWRLNADSVLWGGHKVFMVKPEEPFQPVKEATQL [E189G],0.0586,0.103,–,0.0859,–,–,0.0827,–,0.0438,0.0569,0.0586,0.0764,–,0.0589,0.0839,0.0723,0.077,–,0.0583
MGESLFKGPRDYNPISSSICHLTNESDGHTTSLYGIGFGPFIITNKHLFRRNNGTLVVQSLHGVFKVKDTTTLQQHLVDGRDMIIIRMPKDFPPFPQKLKFREPQREERICLVTTNFQTKSMSSMVSDTSCTFPSGDGIFWKHWIQTKDGQCGSPLVSTRDGFIVGIHSASNFTNTNNYFTSVPKNFMELLTNQEAQQWVSGWRLNADSVLWGGHKVFMVLPEEPFQPVKEATQL [K221L],0.0561,0.0677,0.0528,0.066,–,0.0763,–,0.0654,0.0564,0.055,0.0712,0.0837,–,–,0.0627,0.0831,0.0553,0.087,0.0849
MGESLFKGPRDYNPISSSICHLTNESDGHTTSLYGIGFGPFIITNKHLFRRNNGTLVVQSLHGVFKVKDTTTLQQHLVDGRDMIIIRMPKDFPPFPQKLKFREPQREERICLVTTNFQTKSMSSMVSDTSCTFPSGDGIFWKHWIQTKDGQCGSPLWSTRDGFIVGIHSASNFTNTNNYFTSVPKNFMELLTNQEAQQWVSGWRLNADSVLWGGHKVFMVKPEEPFQPVKEATQL [V157W],0.0535,0.0579,–,0.0787,–,0.0661,0.0525,0.0597,0.0528,0.1,0.0492,–,–,0.0522,–,0.0567,0.0684,0.0148,0.0667
MGESLFKGPRDYNPISSSICHLTNESDGHTTSLYGIGFGPFIITNKHLFRRNNGTLVVQSLIGVFKVKDTTTLQQHLVDGRDMIIIRMPKDFPPFPQKLKFREPQREERICLVTTNFQTKSMSSMVSDTSCTFPSGDGIFWKHWIQTKDGQCGSPLVSTRDGFIVGIHSASNFTNTNNYFTSVPKNFMELLTNQEAQQWVSGWRLNADSVLWGGHKVFMVKPEEPFQPVKEATQL [H62I],0.0404,0.0342,0.061,0.131,–,0.0605,–,–,0.0437,0.0698,–,–,–,0.0666,0.0748,0.0662,–,–,0.106
MGESLFKGPRDYNPISSSICHLTNESDGHTVSLYGIGFGPFIITNKHLFRRNNGTLVVQSLHGVFKVKDTTTLQQHLVDGRDMIIIRMPKDFPPFPQKLKFREPQREERICLVTTNFQTKSMSSMVSDTSCTFPSGDGIFWKHWIQTKDGQCGSPLVSTRDGFIVGIHSASNFTNTNNYFTSVPKNFMELLTNQEAQQWVSGWRLNADSVLWGGHKVFMVKPEEPFQPVKEATQL [T31V],0.0843,0.0682,0.0664,0.0901,0.0539,0.079,–,0.0793,0.062,0.0574,0.0653,0.0836,–,0.0808,0.057,0.0973,0.0686,–,0.0859
MGESLFKGPRDYNPISSSICHLTNESDGHTTSLYGIGFGQFIITNKHLFRRNNGTLVVQSLHGVFKVKDTTTLQQHLVDGRDMIIIRMPKDFPPFPQKLKFREPQREERICLVTTNFQTKSMSSMVSDTSCTFPSGDGIFWKHWIQTKDGQCGSPLVSTRDGFIVGIHSASNFTNTNNYFTSVPKNFMELLTNQEAQQWVSGWRLNADSVLWGGHKVFMVKPEEPFQPVKEATQL [P40Q],0.0734,0.0695,–,0.0837,0.0678,0.0609,–,0.0742,–,–,–,0.07,–,0.0798,0.0793,0.0807,0.0595,–,–
MGESLFKGPRDYNPISSSICHLTNESDGHTTSLYGIGFGPFIITNKHLFRRNNGTLVVQSLHGVFKVKDTTTLQQHLVDGRDMIIIRMPKDFPPFPQKLKFREPQREERICLVTTNFQTKIMSSMVSDTSCTFPSGDGIFWKHWIQTKDGQCGSPLVSTRDGFIVGIHSASNFTNTNNYFTSVPKNFMELLTNQEAQQWVSGWRLNADSVLWGGHKVFMVKPEEPFQPVKEATQL [S121I],0.0636,0.0616,–,0.112,–,0.0466,0.0639,0.0614,0.0731,0.0633,0.0593,0.0607,–,–,–,0.0697,0.0623,–,0.0892
